Assay results as given in PubChem BioAssay AID1347417 (National Center for Advancing Translational Sciences (NCATS), 2020).
The whole screen tested about 120,000 compounds, of which about 5,300 (4.4%) were called active. Inconclusive results, whose numbers are uncertain, are shown with a selection of clear calls. Calls come from the whole dose curve; as a rule, active = well fitted inhibition curve with a large enough effect; inconclusive = small, poorly fitted or top-dose-only effect; inactive = no such curve, though single readings can be large or run the other way. Where the call is inconclusive, the potency comes from a doubtful curve fit.

test: qHTS Primary assay for Inhibitors of Plasmodium falciparum Dd2 growth in vitro; note: nearly all actives have a fitted effect of over 65% in size; settings: P. falciparum Dd2 growth, SYBR Green, 72 h; series mostly up to 28.9 µM
Outline: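 Infected erythrocytes (Dd2, 0.3% parasitemia, 2.5% hematocrit final) are added to compound in RPMI-1640/Albumax II medium, grown 72 h at 37C in low oxygen, then lysed with saponin/Triton-X containing SYBR Green and read by fluorescence.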
Potency is the fitted concentration of half-maximal effect; tags give direction and shape of the fitted curve.

Row | Compound | Potency
1 | O=C(NC[C@H]1O[C@@H](CC(=O)N2CCN(c3ccc(F)cc3)CC2)[C@H](O)[C@@H]1O)c1ccco1 | inactive
2 | CC(C)CCN1CCc2c(n(Cc3cccnc3)n(-c3ccccc3)c2=O)C1 | inconclusive: 14.1 µM [inhibitor, single point]
3 | Cc1ccc(C2(C(=O)N3C[C@@H](CN4CCCCC4)[C@@H](CO)C3)CC2)cc1 | inconclusive: 7.94 µM [inhibitor, single point]
4 | COc1cc2c(cc1CCc1ccccc1)N(C(=O)c1ccc3[nH]ccc3c1)CC21CCN(C(C)=O)CC1 | inconclusive: 5.62 µM [inhibitor, partial curve, poor fit]
5 | CCOc1cc(-c2noc(-c3nnn4c3COC(c3ccc(C)cc3C)C4)n2)ccc1OC (configuration not stated) | inactive
6 | COc1ccc(OC)c(NC(=O)CSc2c3c(nc4cc(Cl)ccc24)CCCC3)c1 | active: 8.91 µM
7 | O=C1NCCCCCCN(C(=O)c2cccs2)[C@H]2C[C@H](c3nc(Cc4ccccc4)no3)C[C@@H]12 | inconclusive: 11.2 µM [inhibitor, partial curve, poor fit]
8 | Cc1ccc(-n2cnc3cc(C(=O)NC4CCCCCC4)ccc32)c(C)c1 | inconclusive: 17.8 µM [inhibitor, single point]
9 | O=C(NCc1ccc(Cl)cc1)c1ccc2cncn2c1 | inactive
10 | O=C(NCCc1cccnc1)c1cccc2c1CCN2C(=O)Nc1ccc(F)cc1 | inconclusive: 3.98 µM [inhibitor, partial curve, poor fit]
11 | O=c1cc(-c2cccnc2)nc(-c2ccc(CN3CCCC(F)(F)C3)cc2)[nH]1 | inconclusive: 20 µM [inhibitor, single point]
12 | CCS(=O)(=O)n1nc(-c2ccco2)nc1NCc1ccc(C(C)C)cc1 | inconclusive: 11.2 µM [inhibitor, single point]
13 | c1cc(-c2n[nH]c(CC3CCNC3)n2)ccn1 (configuration not stated) | inconclusive: 12.6 µM [inhibitor, partial curve, poor fit]
14 | CCc1nc2c(c(-c3ccc(Cl)cc3)n1)CCN([S+](=O)([O-])c1cccc(C(F)(F)F)c1)CC2 | inconclusive: 11.2 µM [inhibitor, partial curve, poor fit]
15 | Cc1cnc(C(=O)N[C@@H]2CCC[C@@H]2C(=O)NCc2ccccc2F)cn1 | inconclusive: 5.62 µM [inhibitor, partial curve]
16 | O=C(NC1CCCCC1)c1ccc2c(c1)N(Cc1ccccc1F)C(=O)c1ccccc1S2 | inconclusive: 10 µM [inhibitor, single point]
17 | COc1ccc(NC(=O)[C@@H]2C[C@@H](c3ccc(F)cc3)N(Cc3ccccc3)C2)cn1 | inconclusive: 5.01 µM [inhibitor, full curve]
